Experimental data as given in PubChem BioAssay (NCATS).
Where “and” joins values, the source holds several entries; their conditions need not be identical. Identical values can stand only once. Some of the results follow. These are further read-outs of the screen, such as a control signal, another cell line or another target. No call is given for them. The note in brackets gives the kind of curve behind each potency; many fits are weak.

Assay: qHTS drug screen for cell cycle checkpoint inhibitors in PARPi-resistant BRCA-mutant ovarian cancer cell lines. (AID 1963452)
Conditions: PEO1/OlaR viability, CellTiter-Glo luminescence, 96 h
How it was run: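 PEO1, PEO4 and PEO1/OlaR ovarian cancer cells, 600 per well, exposed 96 h at 37C to a dilution series. Viability read by CellTiter-Glo luminescence, normalized to DMSO and empty wells; activity summarized as Z-AUC.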

[1] = measured here: PEO1 parental viability
Tags give direction and shape of the fitted curve.

SMILES	AC50 [1]	AC50 (measured here: PEO4 viability)
CC[C@@]1(O)C(=O)OCc2c1cc1n(c2=O)Cc2c-1nc1ccccc1c2CCNC(C)C	0.0069 µM [falling, full curve]	0.0549 µM [falling, full curve]
COC1(c2sc3c(N4CCOCC4)nc(-c4cnc(N)nc4)nc3c2C)COC1	0.389 µM [falling, full curve, poor fit]	0.309 µM [falling, full curve]
C[C@@H](Oc1cc(C(=O)Nc2ccc(C(=O)N3CCN(C)CC3)cc2)nnc1N)c1c(Cl)ccc(F)c1Cl	6.92 µM [falling, partial curve]	1.55 µM [falling, full curve]
Cc1ccc(NC(=O)c2ccc(CN3CCNCC3)cc2)cc1Nc1nccc(-c2cccnc2)n1	1.55 µM [falling, partial curve, poor fit]	21.9 µM [falling, single point]
O=C(/C=C/c1ccc2ccc(C(F)(F)F)cc2n1)c1ccncc1	3.47 µM [falling, full curve]	4.36 µM [falling, full curve]
COc1cc(N2CCN(C(C)=O)CC2)ccc1Nc1ncc(Cl)c(Nc2ccc(N3CCN(C(C)=O)CC3)cc2OC)n1	17.4 µM [falling, partial curve, poor fit]	13.8 µM [falling, partial curve]
C=CC(=O)N1CC/C(=C\c2ccc(F)c([N+](=O)[O-])c2)C(=O)/C(=C/c2ccc(F)c([N+](=O)[O-])c2)C1	0.174 µM [falling, full curve]	0.195 µM [falling, full curve]
COc1c(Nc2ncc(Cl)c(N[C@H]3[C@@H](C(N)=O)[C@@H]4C=C[C@H]3C4)n2)ccc2c1CC[C@@H](N1CCOCC1)CC2	5.49 µM [falling, partial curve]	4.9 µM [falling, partial curve]
COc1cc2c(cc1O)CCN[C@]21CS[C@@H]2c3c(OC(C)=O)c(C)c4c(c3[C@H](COC1=O)N1[C@@H]2[C@H]2c3c(cc(C)c(OC)c3O)C[C@@H]([C@@H]1O)N2C)OCO4	0.0089 µM [falling, full curve]	0.0178 µM [falling, full curve]
C[C@H](NC(=O)c1c(N)nn2cccnc12)c1cc2cccc(C#Cc3cnn(C)c3)c2c(=O)n1-c1ccccc1	13.4 µM [falling, partial curve, poor fit]	6.74 µM [falling, partial curve, poor fit]
Nc1cc(C(F)(F)F)c(-c2nc(N3CCOCC3)nc(N3CCOCC3)n2)cn1	5.49 µM [falling, partial curve]	4.36 µM [falling, partial curve]
CCOC(=O)CCNc1cc(N2CCc3ccccc3CC2)nc(-c2ccccn2)n1	13.8 µM [falling, partial curve]	5.49 µM [falling, partial curve]
COc1ccc(S(=O)(=O)Nc2cc(-c3csc(C#N)c3)ccc2C)cc1	0.049 µM [falling, full curve]	0.049 µM [falling, full curve]
COc1cc(N2CCC(N3CCN(C)CC3)CC2)ccc1Nc1ncc(Cl)c(Nc2ccccc2P(C)(C)=O)n1	0.549 µM [falling, full curve]	0.49 µM [falling, full curve]
COC(=O)c1ccc([C@H]2c3[nH]c4ccccc4c3C[C@H](C(=O)OC)N2C(=O)CCl)cc1	24.5 µM [falling, single point]	24.5 µM [falling, single point]
CCOc1cc2ncc(C#N)c(Nc3ccc(OCc4ccccn4)c(Cl)c3)c2cc1NC(=O)/C=C/CN(C)C	2.19 µM [falling, partial curve]	12.3 µM [falling, partial curve, poor fit]
CCC1CCCCN1C(=O)n1ncc(C(O)(c2ccccc2)c2ccccc2)n1 (centres undefined)	24.5 µM [falling, single point]	13.8 µM [falling, partial curve]
C[C@@H]1COCCN1c1cc(-c2ccnn2C)c2ccnc(-c3ccn[nH]3)c2n1	6.16 µM [falling, partial curve]	2.19 µM [falling, full curve]
CCC(=O)NC[C@H](Cc1ccc(OCCc2nc(-c3ccccc3)oc2C)cc1)N/C(C)=C\C(=O)c1ccc(C(F)(F)F)cc1	7.76 µM [falling, partial curve, poor fit]	19.5 µM [falling, single point]

SMILES	AC50 [1]	AC50 (measured here: PEO4 viability)
Oc1ccc(Nc2nc(-c3ccc(Cl)cc3)cs2)cc1	15.5 µM [falling, partial curve, poor fit]	13.8 µM [falling, partial curve]
C[C@@H](NCCCc1cccc(C(F)(F)F)c1)c1cccc2ccccc12	19.5 µM [falling, single point]	24.5 µM [falling, single point]
COCCNCc1ccc(-c2cc3nccc(Oc4ccc(NC(=O)C5(C(=O)Nc6ccc(F)cc6)CC5)cc4F)c3s2)nc1	4.9 µM [falling, full curve]	2.45 µM [falling, full curve]
C[C@@H](Oc1ccc2[nH]nc(/C=C/c3cnn(CCO)c3)c2c1)c1c(Cl)cncc1Cl	2.75 µM [falling, partial curve]	1.95 µM [falling, partial curve, poor fit]
Cc1cc(I)ccc1Nc1c(C(=O)NOCC2CC2)cc(F)c(F)c1F	6.92 µM [falling, partial curve]	12.3 µM [falling, partial curve]
Nc1nccc(-c2c(-c3ccc(F)cc3)ncn2C2CCCCC2)n1	24.5 µM [falling, partial curve, poor fit]	27.5 µM [falling, single point]
Cn1cncc1C(N)(c1ccc(Cl)cc1)c1ccc2c(c1)c(-c1cccc(Cl)c1)cc(=O)n2C (centres undefined)	15.5 µM [falling, single point]	19.5 µM [falling, partial curve, poor fit]
Nc1ncnc(Nc2ccc(OCc3ccccc3)c(Cl)c2)c1/C=N/OCCN1CCOCC1	17.4 µM [falling, single point]	17.4 µM [falling, partial curve]
Cc1nc(NC(=O)N2CCC[C@H]2C(N)=O)sc1-c1ccnc(C(C)(C)C(F)(F)F)c1	12.3 µM [falling, partial curve] and 13.8 µM [falling, partial curve]	12.3 µM [falling, partial curve, poor fit] and 6.92 µM [falling, partial curve]
Cc1cc(C(=O)Nc2cc(Oc3ccc4nc(NC(=O)C5CC5)cn4n3)ccc2C)n(C)n1	17.4 µM [falling, partial curve]	13.8 µM [falling, partial curve]
COc1ccc2cc(OCC3(C(=O)O)CN(C(=O)c4ccc(F)cc4)C3)ccc2c1	0.0692 µM [rising, full curve, poor fit]	0.174 µM [rising, partial curve, poor fit]
CO[C@H]1/C=C/O[C@@]2(C)Oc3c(C)c(O)c4c(O)c(c5c(nc6cc(C)ccn65)c4c3C2=O)NC(=O)/C(C)=C\C=C\[C@H](C)[C@H](O)[C@@H](C)[C@@H](O)[C@@H](C)[C@H](OC(C)=O)[C@@H]1C	5.49 µM [falling, full curve]	5.49 µM [falling, full curve]
CN1CCN(C(=O)c2ccc(-c3ccc4c(C=O)c(O)ccc4c3)s2)CC1	27.5 µM [falling, single point]	17.4 µM [falling, single point]
CC[C@@H]1[C@H](F)C(=O)N[C@@H]1COc1nccc2cc(C(N)=O)c(OC)cc12	12.3 µM [falling, partial curve, poor fit]	17.4 µM [falling, single point]
COc1ccc2[nH]c3c(c2c1)CCN[C@]31CS[C@@H]2c3c(OC(C)=O)c(C)c4c(c3[C@H](COC1=O)N1[C@@H]2[C@H]2c3c(cc(C)c(OC)c3O)C[C@@H]([C@@H]1O)N2C)OCO4	0.0112 µM [falling, full curve]	0.02 µM [falling, full curve]
CN1CCN(c2ccc3nc(-c4cc(C(C)(C)C)c(OCCCC(=O)NCCCN=[N+]=[N-])c(C(C)(C)C)c4)[nH]c3c2)CC1	7.76 µM [falling, partial curve]	3.47 µM [falling, full curve]
CC(=O)O[C@@]12CO[C@@H]1C[C@H](O)[C@@]1(C)C(=O)[C@H](O)C3=C(C)[C@@H](OC(=O)[C@H](O)[C@@H](NC(=O)OC(C)(C)C)c4ccccc4)C[C@@](O)([C@@H](OC(=O)c4ccccc4)[C@H]21)C3(C)C	0.0123 µM [falling, full curve]	0.0347 µM [falling, full curve, poor fit]
CN(C(=O)CNC(=O)/C=C/c1cccc(Cl)c1)C1CCS(=O)(=O)CC1	2.19 µM [falling, full curve]	0.977 µM [falling, full curve]
